From PubChem BioAssay AID2147 (National Center for Advancing Translational Sciences (NCATS), 2009)
Among all 230,000 compounds or so, about 3,600 (1.6%) were called active. Inconclusive means that the source gave no clear call. Such entries were picked first, then a sample of the others. The call rests on the fitted dose curve; in most records, active means well fitted inhibition curve with a large enough effect (not every such curve was filed as active); inconclusive means small, poorly fitted or top-dose-only effect, or another doubt; inactive means no such curve, though single readings can be large or run the other way. Potencies beside an inconclusive call are fits to weak or partial responses and may not hold up. More than one record can exist for a structure, and the calls need not agree.

target: Lysine-specific demethylase 4E (Homo sapiens) (UniProt B2RXH2); experiment: qHTS Assay for Inhibitors of Human Jumonji Domain Containing 2E (JMJD2E); conditions: JMJD2E catalytic domain, FDH-coupled NADH fluorescence (FDH is formaldehyde dehydrogenase); series mostly up to 57.1 µM
UniProt B2RXH2, sequence (B2RXH2 whole entry, looked up, the tested form may be a part): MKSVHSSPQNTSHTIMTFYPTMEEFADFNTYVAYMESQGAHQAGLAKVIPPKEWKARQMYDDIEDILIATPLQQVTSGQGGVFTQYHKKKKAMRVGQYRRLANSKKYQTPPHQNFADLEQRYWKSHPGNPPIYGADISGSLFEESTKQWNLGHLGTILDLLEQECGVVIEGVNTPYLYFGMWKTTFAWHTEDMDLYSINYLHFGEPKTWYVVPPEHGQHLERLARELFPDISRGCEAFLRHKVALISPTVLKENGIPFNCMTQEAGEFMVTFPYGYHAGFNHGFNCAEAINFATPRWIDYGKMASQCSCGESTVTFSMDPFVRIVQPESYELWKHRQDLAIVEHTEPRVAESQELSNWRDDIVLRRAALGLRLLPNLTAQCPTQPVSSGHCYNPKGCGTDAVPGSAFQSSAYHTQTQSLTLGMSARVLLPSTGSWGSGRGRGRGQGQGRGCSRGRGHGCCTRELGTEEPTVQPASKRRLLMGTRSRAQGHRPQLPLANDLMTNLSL
Further: nearly all actives have a fitted effect of over 50% in size.
Potency means the concentration at half of the fitted maximal effect; tags describe the fitted curve by direction and shape.

Row | SMILES | Potency
1 | O=C(Nc1ccc(CN2CCOCC2)cc1)c1ccc(N2CCCC2)c([N+](=O)[O-])c1 | inactive
2 | Cc1ccc(NS(=O)(=O)c2ccc(Cl)c(C(=O)Nc3ccccc3-c3nc4ccccc4[nH]3)c2)cc1C | inconclusive: 31.6 µM [inhibitor, partial curve]
3 | CSc1cc(-c2ccc(Cl)cc2)[nH]c(=O)c1C#N | inconclusive: 12.6 µM [inhibitor, partial curve]
4 | COc1cc(-c2c(C#N)c(N)nc3c2CCCC3)cc(OC)c1OC | inconclusive: 28.2 µM [inhibitor, single point]
5 | CN(C)CCCNc1c2c(c(C#N)c3nc4ccccc4n13)CCC2 | inconclusive: 28.2 µM [inhibitor, partial curve]
6 | CCn1cc(C(=O)O)c(=O)c2cc(F)c(N/N=C/c3ccccc3)cc21 | inactive
7 | COc1ccc(C(=O)CSc2nnc(NC(=O)C3CC(=O)N(c4ccccc4C)C3)s2)cc1 (stereo not drawn) | inactive
8 | O=C(c1ccccn1)N(Cc1cc2ccccc2[nH]c1=O)C1CCCCC1 | inconclusive: 22.4 µM [inhibitor, single point]
9 | Fc1ccccc1N1CCN(c2nc(-c3cccs3)nc3ccccc23)CC1 | inconclusive: 31.6 µM [inhibitor, partial curve]
10 | N#C/C(=N/Nc1ccc(OC(F)(F)F)cc1)C(N)=S | inactive
11 | Cc1[nH]nc(SCC(=O)N2CCC(C)CC2)c1[N+](=O)[O-] | inactive
12 | COc1ccc(C)cc1NC(=O)CCC(=O)Nc1ccc2nc(N3CCN(C)CC3)cc(C)c2c1 | inconclusive: 31.6 µM [inhibitor, partial curve]
13 | Cc1ccc(-c2nc(CSCC(=O)NCCCN3CCOCC3)c(C)o2)cc1 | inconclusive: 39.8 µM [inhibitor, single point]
14 | O=C(COc1ccccc1)N1CCN(c2ncccn2)CC1 | inconclusive: 22.4 µM [inhibitor, partial curve]
15 | CCOC(=O)c1cccc(NC(=O)/C=C/c2ccc3c(c2)OCO3)c1 | inconclusive: 39.8 µM [inhibitor, single point]
16 | Cn1c(SCC(=O)Nc2ccccc2)nnc1-c1ccc2nonc2c1 | inactive
17 | CCc1cc2c(NCC3CCCO3)nc(C)nc2s1 (stereo not drawn) | inconclusive: 31.6 µM [inhibitor, partial curve]
18 | O=C(C1CCCO1)N1CCN(Cc2c(O)ccc3ccccc23)CC1 (stereo not drawn) | inconclusive: 28.2 µM [inhibitor, partial curve]
19 | NC(=O)c1ccccc1N/C=C/C(=O)c1ccc(Cl)cc1Cl | inconclusive: 25.1 µM [inhibitor, single point]
20 | COC(=O)c1sccc1NC(=O)c1ccc(Br)o1 | inconclusive: 39.8 µM [inhibitor, single point]
21 | CC(=O)N1CCN(c2ccc(NCc3ccc(C)s3)cc2)CC1 | inconclusive: 31.6 µM [inhibitor, single point]
22 | C=CCn1c(=N)c(C(=O)OCC)cc2c(=O)n3cc(C)ccc3nc21 | inconclusive: 3.16 µM [inhibitor, full curve]
23 | CC(C)OP(=O)(c1ccc(N(C)C)cc1)C(Nc1ccccc1)c1ccccc1 (stereo not drawn) | inactive
24 | Cc1cc(N(CCO)CCO)nc(-n2nc(C)cc2C)n1 | inactive

Row | SMILES | Potency
25 | Oc1[nH]c2ccccc2c1N=NC(=S)N1CCOCC1 | inconclusive: 35.5 µM [inhibitor, single point]
26 | COc1ccc2c(c1)[nH]c(=O)c1sc3ccccc3c12 | inconclusive: 12.6 µM [inhibitor, partial curve]
27 | COc1ccc(NC(=O)C2C3C=CC(C3)C2C(=O)O)cc1 (stereo not drawn) | inactive
28 | Cc1ccc(Nc2nnc(-c3ccccc3N)o2)cc1C | inconclusive: 12.6 µM [inhibitor, partial curve]
29 | CC(=O)OC1CC[C@]2(C)C(CC(OC(C)=O)[C@]3(C)C2CC[C@@]2(C)C(c4ccoc4)OC(=O)C4O[C@]432)C1(C)C (stereo partly drawn) | inactive
30 | Cc1nc2ccc(NC(=O)N3CCCCC3)cc2nc1C | inconclusive: 31.6 µM [inhibitor, partial curve]
31 | CCCc1ncc(C(O)c2ccccc2OC)n1C (stereo not drawn) | inactive
32 | CCCCNC(=S)N1CCn2cccc2C1c1ccccc1 (stereo not drawn) | inconclusive: 17.8 µM [inhibitor, single point]
33 | CCOC(=O)c1ccc(N2C(=O)C3CC=CCC3C2=O)cc1 (stereo not drawn) | inactive
34 | CCn1c(-c2cccn(Cc3ccc(Cl)cc3Cl)c2=O)n[nH]c1=S | inconclusive: 35.5 µM [inhibitor, partial curve]
35 | Nc1nc(Nc2ccc(Cl)cc2)nc(NCCO)c1[N+](=O)[O-] | inactive
36 | Cc1nc2ccccn2c1C(=O)N/N=C/c1ccc([N+](=O)[O-])o1 | inconclusive: 20 µM [inhibitor, single point]
37 | CC(C)c1ccc(C2CC(=O)N3CN(Cc4ccco4)CSC3=C2C#N)cc1 (stereo not drawn) | inactive
38 | COC/C=C/C1=CC2=CC(=O)C(C)(OC(=O)c3cnc4ccccc4n3)C(=O)C2=CN1CCN1CCOCC1 (stereo not drawn) | active: 12.6 µM
39 | COc1ccccc1NC(=O)N(CCCN1CCOCC1)Cc1cc2cc3c(cc2[nH]c1=O)OCO3 | inconclusive: 28.2 µM [inhibitor, partial curve]
40 | O=c1oc2ccccc2nc1/C=C(\O)c1ccc(Br)cc1 | inconclusive: 28.2 µM [inhibitor, single point]
41 | Cc1cnn2c(C3CC3)ccnc12 | inconclusive: 28.2 µM [inhibitor, single point]
42 | CN(C(=O)CSc1nc2ccccc2n1CCc1ccccc1)C1CCS(=O)(=O)C1 (stereo not drawn) | inactive
43 | Cn1c(-c2cccc(Br)c2)n[nH]c1=O | inactive
44 | CCc1nc2ccccc2c(C(=O)NCc2ccccc2)c1C | inconclusive: 39.8 µM [inhibitor, single point]
45 | CC(C)CC(c1nnnn1CCc1ccccc1)N1CCN(C(=O)c2ccco2)CC1 (stereo not drawn) | inactive
46 | O=c1[nH]c2cc3c(cc2cc1CN(Cc1nnnn1C1CCCC1)C1CCCC1)OCCO3 | inconclusive: 35.5 µM [inhibitor, single point]
47 | Cc1cc(=O)n2ccsc2n1 | inactive
48 | Cc1nc(NS(=O)(=O)c2cccs2)c2c3c(sc2n1)CCC3 | inconclusive: 31.6 µM [inhibitor, single point]
